Marks after values point to notes of the source that are not given here.
Tests used:
[1] = molecular target: human H1 receptor (Homo sapiens, UniProt P35367); test: biochemical; conditions: read-out: H1R % inhibition of control specific binding
[2] = molecular target: human M1 receptor (Homo sapiens, UniProt P11229); test: biochemical; conditions: read-out: M1R % inhibition of control specific binding
[3] = system: Wistar rats; conditions: rat, in vivo, ip
[4] = system: Wistar rats; conditions: rat, in vivo; for FST MED: ip
[5] = system: Wistar rats; conditions: rat, in vivo
[6] = system: Wistar rats; conditions: rat, in vivo, ip; remark: listed apart in the source
[7] = molecular target: human serotonin 5-HT7 receptor (Homo sapiens, UniProt P34969); test: cell-based
[8] = system: mice; conditions: mouse, in vivo; cited from earlier work
[9] = molecular target: serotonin and dopamine receptors (5-HT2A, 5-HT6, 5-HT7, D2); conditions: cited from earlier work

| SMILES | inhibition at 1 µM [1] [%] | inhibition at 1 µM [2] [%] | also measured |
| --- | --- | --- | --- |
| O=S(=O)(CC1CCN(CCCc2noc3cc(F)ccc23)C1)c1ccc(Cl)c(Cl)c1 (centres unmarked) [Compound 5, 6-Fluoro-3-(3-(3-(((3,4-dichlorophenyl)sulfonyl)methyl)-1-pyrrolidinyl)propyl)benzo[d]isoxazole] | 54 | 4 |  |
| C[C@H]1C[C@H](NS(=O)(=O)c2cc3ccccc3s2)CN1CCCc1noc2cc(F)ccc12 [Compound 16, N-((3S,5S)-1-(3-(6-Fluorobenzo[d]isoxazol-3-yl)propyl)-5-methylpyrrolidin-3-yl)benzo[b]thiophene-2-sulfonamide] | 2 | -1 | EPM total open arm time (in words) [3]: significantly and dose-dependently enhanced the total open arm time; efficacy in the FST (in words) [4]: did not show statistically significant efficacy; MK-801-induced hyperactivity, total distance traveled (in words) [5]: tended to decrease the total distance animals traveled; efficacy in the Vogel conflict drinking test (in words) [6]: statistically significant anxiolytic effects |
| CN(C)CCCN1c2ccccc2CCc2ccccc21 [Imipramine, reference compound] |  |  | FST MED [4]: 10 mg/kg |
| C[C@H]1C[C@H](NS(=O)(=O)c2csc3ccccc23)CN1CCCc1noc2cc(F)ccc12 [Compound 15, N-((3S,5S)-1-(3-(6-Fluorobenzo[d]isoxazol-3-yl)propyl)-5-methylpyrrolidin-3-yl)benzo[b]thiophene-3-sulfonamide] | 10 | 11 |  |
| C[C@H]1C[C@H](NS(=O)(=O)c2ccc3ccccc3c2)CN1CCCc1noc2cc(F)ccc12 [Compound 21, N-((3S,5S)-1-(3-(6-Fluorobenzo[d]isoxazol-3-yl)propyl)-5-methylpyrrolidin-3-yl)naphthalene-2-sulfonamide] | 4 | -6 | Kb [7]: 457 nM |
| O=S(=O)(CC1CCN(CCCc2noc3cc(F)ccc23)C1)c1ccc2ccccc2c1 (centres unmarked) [Compound 2, 6-Fluoro-3-(3-(3-(((naphthalene-2-yl-phenyl)sulfonyl)methyl)pyrrolidin-1-yl)propyl)benzo[d]isoxazole] | 39 | -15 |  |
| O=S(=O)(CC1CCN(CCCc2noc3cc(F)ccc23)C1)c1cccc(Cl)c1 (centres unmarked) [Compound 11, 6-Fluoro-3-(3-(3-(((3-chlorophenyl)sulfonyl)methyl)-1-pyrrolidinyl)propyl)benzo[d]isoxazole] | 24 | -5 | efficacy in the FST (in words) [4]: pronounced antidepressant-like activity; MK-801-induced hyperactivity, total distance traveled (in words) [5]: tended to decrease the total distance animals traveled; efficacy in the Vogel conflict drinking test (in words) [6]: did not show statistically significant efficacy |
| C[C@H]1C[C@H](NS(=O)(=O)c2cc3ccc(F)cc3s2)CN1CCCc1noc2cc(F)ccc12 [Compound 18, 6-Fluoro-N-((3S,5S)-1-(3-(6-fluorobenzo[d]isoxazol-3-yl)propyl)-5-methylpyrrolidin-3-yl)benzo[b]thiophene-2-sulfonamide] | 19 | 7 |  |
| CN(C)CCC[C@@]1(c2ccc(F)cc2)OCc2cc(C#N)ccc21 [S-citalopram, reference compound] |  |  | FST MED [4]: 20 mg/kg |
| O=S(=O)(CC1CCN(CCCc2noc3cc(F)ccc23)C1)c1ccc(C(F)(F)F)cc1 (centres unmarked) [Compound 7, 6-Fluoro-3-(3-(3-(((4-(trifluoromethyl)phenyl)sulfonyl)methyl)pyrrolidin-1-yl)propyl)benzo[d]isoxazole] | 29 | -7 | efficacy in the FST (in words) [4]: did not show statistically significant efficacy; MK-801-induced hyperactivity, total distance traveled (in words) [5]: tended to decrease the total distance animals traveled; efficacy in the Vogel conflict drinking test (in words) [6]: did not show statistically significant efficacy |
| O=C1CC2(CCCC2)CC(=O)N1CCCCN1CCN(c2ncccn2)CC1 [Buspirone, reference compound] |  |  | EPM MED [3]: 1.25 mg/kg; Vogel test MED [6]: 1.25 mg/kg |
| Cc1ccc(S(=O)(=O)CC2CCN(CCCc3noc4cc(F)ccc34)C2)cc1C (centres unmarked) [Compound 3, 6-Fluoro-3-(3-(3-(((3,4-dimethylphenyl)sulfonyl)methyl)-1-pyrrolidinyl)propyl)benzo[d]isoxazole] | 58 | 5 |  |
| CC(C)COc1ccc(CNC(=O)N(Cc2ccc(F)cc2)C2CCN(C)CC2)cc1 [Pimavanserin] |  |  | MK-801-induced hyperactivity MED [8]: 0.1 ^b mg/kg |
| O=S(=O)(NC1CCN(CCCc2noc3cc(F)ccc23)C1)c1ccc(F)cc1 (centres unmarked) [Compound 1] |  |  | affinity for the defined biological targets (pKi) [9]: > 7 |

Source: paper PMC8436213 (Journal of Medicinal Chemistry, 2021)
